From the supplement of paper PMC4723716
± gives the uncertainty stated by the source. Over roughly 9,900 compounds, “viability index relative to DMSO control” has its median near 1; the lowest 2% begin near 0.85. Some of the results follow.

Tested on: Plasmodium falciparum NF54 stage V gametocytes
Experiment: viability index relative to DMSO control (fraction); higher = less gametocyte killing
Conditions: 2.5 µM, incubation time: 72 h
Summary of the method: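 Compound at 2.5 µM was incubated for 72 hr at 37°C under low oxygen with P. falciparum NF54 stage V gametocytes (0.75% gametocytemia, 1.25% hematocrit, 10 µl, serum-free screening medium) in 1,536-well plates. Staining used 3 µl of 2.5 µM MitoTracker Red CMXRos plus 0.13% saponin for one to two hours, and red particles of 20–70 µm2 were counted in one imaged field per well. Each viability index is that count relative to the plate mean of solvent-only wells.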

[1] = library set: Broad Institute DOS

SMILES	viability index [1]	viability index (library set: Broad Institute Blood Stage)
COC(=O)[C@@H]1[C@@H](CO)[C@@H]2Cn3c(ccc(C4=CCCCC4)c3=O)[C@@H]2N1C(=O)c1ccccc1F	1.08 ± 0.049	
O=C1CN(S(=O)(=O)Cc2ccccc2)C[C@@H]2[C@@H](c3ccc(C#Cc4ccccc4)cc3)[C@@H](CO)N12	0.892 ± 0.061	
C[C@H](CO)N1C[C@H](C)[C@H](CN(C)Cc2ccc(Cl)c(Cl)c2)Oc2c(NS(=O)(=O)c3ccc(F)cc3)cccc2C1=O	1.01 ± 0.034	
O=C(C1CCCCC1)N1CC2(C1)[C@@H](c1ccccc1)[C@@H](CO)N2CCC(F)(F)F	1.1 ± 0.029	
N#C[C@@H]1[C@H](c2ccccc2C2=CCCC2)[C@@H](CO)N1C(=O)NC1CCCCC1	1.08 ± 0.013	
CS(=O)(=O)N1CC(=O)N2[C@H](CO)[C@@H](c3ccc(Br)cc3)[C@H]2C1	0.99203 ± 8.3e-05	
C[C@@H]1CN([C@H](C)CO)C(=O)CCCn2nncc2CO[C@H]1CN(C)CC1CCCCC1	1.113 ± 0.011	
N#Cc1cccc(-c2ccc3c(c2)[C@@H]2[C@@H](CCN2C(=O)c2ccccc2F)[C@@H](CO)N3)c1	1.139 ± 0.011	
Cc1noc(C)c1S(=O)(=O)N(C)C[C@H]1OCc2cn(nn2)CCCC(=O)N([C@@H](C)CO)C[C@H]1C	1.09 ± 0.018	
CCCNC(=O)N1C[C@H]2[C@@H](c3ccccc31)[C@H](CO)N2Cc1cccc(OC)c1	1.06 ± 0.026	
COc1ccc(S(=O)(=O)N(C)C[C@@H]2OCc3ccccc3-c3c(n(C)c4ccccc34)C(=O)N([C@@H](C)CO)C[C@@H]2C)cc1		0.936 ± 0.044
Cc1ccc(-c2ccccc2[C@@H]2[C@H](C#N)N(S(C)(=O)=O)[C@H]2CO)cc1	0.998 ± 0.081	
Cn1cnc(S(=O)(=O)N[C@@H]2CC[C@@H](CC(=O)NCC3CCCCC3)O[C@@H]2CO)c1	0.994 ± 0.011	
COCCNC(=O)c1cc2c(c(-c3cccc(C4=CCCCC4)c3)n1)[C@H](CCO)N([S@@](=O)C(C)(C)C)C2	1.06 ± 0.027	
CN(C)CC(=O)N1CC2(C1)[C@@H](c1ccccc1)[C@@H](CO)N2S(C)(=O)=O	1.11 ± 0.018	
CO[C@@H]1CN(C)C(=O)c2ccc(NC(=O)C3CC3)cc2OC[C@@H](C)N(C(C)=O)C[C@@H]1C	1.02 ± 0.042	
COC(=O)C[C@@H]1C=C[C@@H](N)[C@H](CO)O1	1.12 ± 0.17	
COc1ccccc1CNC(=O)C[C@H]1CC[C@H]2[C@H](COc3ccc(NC(C)=O)cc3C(=O)N2C)O1	0.988 ± 0.1	
CCCN1C[C@H](C)[C@@H](OC)CN(C)C(=O)c2ccc(NS(=O)(=O)c3cn(C)cn3)cc2OC[C@H]1C	0.984 ± 0.024	
C[C@H](O)C#Cc1ccc([C@@H]2[C@H]3CN(C(=O)c4ccc5c(c4)OCO5)CCCCN3[C@H]2CO)cc1	1.055 ± 0.0072	
CCCNC(=O)N[C@@H]1C=C[C@H](CC(=O)N2CCN(C)CC2)O[C@@H]1CO	0.936 ± 0.12	
FC(F)(F)c1cccc(CN2[C@@H]3CNC[C@H]2[C@@H]3c2ccc(-c3cccnc3)cc2)c1	1.12 ± 0.04	
CO[C@H]1CC[C@@H]2CCOc3c(C#N)cccc3C(=O)N(C)CC3(CCCCC3)CC(=O)N(C)C[C@H]1O2	1.02 ± 0.009	
O=C(C[C@@H]1CC[C@H]2[C@@H](COC[C@H](O)CN2Cc2cc(F)ccc2F)O1)NCc1ccc(Oc2ccccc2)cc1	1.1 ± 0.15	

SMILES	viability index [1]	viability index (library set: Broad Institute Blood Stage)
CCS(=O)(=O)Nc1ccc2c(c1)C(=O)N(C)[C@@H]1CC[C@H](CC(=O)N3CCN(C)CC3)O[C@@H]1CO2	0.958 ± 0.047	
CCc1cnc(N2[C@H](CO)[C@@H](c3ccccc3-c3ccccc3C)[C@@H]2C#N)s1	1.1 ± 0.097	
COCC(=O)Nc1ccc2c(c1)[C@H]1C[C@H](CC(=O)N[C@@H](C)c3ccccc3)O[C@H](CO)[C@H]1O2	1.062 ± 0.0016	
CS(=O)(=O)N1[C@@H]2CNC[C@H]1[C@H]2c1ccc(-c2ccccc2)cc1	0.968 ± 0.14	
C[C@@H]1CN([C@H](C)CO)C(=O)c2c(c3ccccc3n2C)-c2ccccc2CO[C@H]1CN(C)C(=O)[C@H](Cc1ccccc1)N(C)C	0.999 ± 0.032	
Cc1noc(C)c1S(=O)(=O)N(C)C[C@@H]1Oc2c(NS(=O)(=O)c3cn(C)cn3)cccc2C(=O)N([C@H](C)CO)C[C@H]1C	0.989 ± 0.029	
O=C(NC1CCCCC1)[C@@H]1[C@@H](CO)[C@@H]2Cn3c(cccc3=O)[C@H]1N2Cc1cccnc1	1.03 ± 0.058	
N#Cc1ccc(-c2ccc([C@@H]3[C@H]4CNCC(=O)N4[C@H]3CO)cc2)cc1	0.889 ± 0.055	
COc1cccc(S(=O)(=O)N(C)C[C@@H]2OCc3ccccc3-c3c(n(C)c4ccccc34)C(=O)N([C@H](C)CO)C[C@H]2C)c1	1.01 ± 0.012	
N#C[C@@H]1[C@H](c2ccccc2-c2ccccc2)[C@@H](CO)N1C(=O)Cc1ccncc1	1.05 ± 0.022	
CN1C(=O)c2cc(NC(=O)C3CCOCC3)ccc2OC[C@H]2O[C@H](CC(=O)NCC3CCCCC3)CC[C@H]21	1.02 ± 0.11	
OC[C@@H]1[C@H](c2ccccc2)C2(CN(CCC(F)(F)F)C2)N1Cc1nccs1	1.14 ± 0.016	
COCCNC(=O)C[C@H]1CC[C@H]2[C@@H](COc3ccc(NC(=O)Nc4cccc(F)c4)cc3C(=O)N2C)O1	1.1 ± 0.086	
O=C(NC[C@H]1N[C@H](CO)[C@@H]1c1ccccc1)c1ccccc1F	0.99 ± 0.012	
COc1ccc2c3c([nH]c2c1)[C@@H](CO)N(C[C@]31CN(Cc2cc(on2)-c2ccccc2)C1)C(=O)Nc1ccc(F)cc1	0.989 ± 0.019	
Cc1noc(C)c1S(=O)(=O)N(C)C[C@@H]1OCCCC[C@H](C)Oc2ccc(NC(=O)CCC(F)(F)F)cc2C(=O)N([C@H](C)CO)C[C@@H]1C	1.055 ± 0.0039	
CCS(=O)(=O)N1[C@H](CO)[C@H](c2ccccc2)[C@@H]1CN(C)Cc1ccccn1	1 ± 0.035	
COc1ccc2c3c([C@@H](CO)N(C[C@]33CN(C3)C(=O)CN3CCOCC3)C(=O)Nc3ccc(F)cc3)n(C)c2c1	1.17 ± 0.1	
CC(C)NC(=O)N(C)C[C@H]1Oc2ccc(NC(=O)c3ccncc3)cc2C(=O)N([C@@H](C)CO)C[C@H]1C	0.99 ± 0.13	
COc1cccc(-c2ccc([C@H]3[C@@H]4CN(C(=O)Nc5ccccc5F)C[C@H]3N4)cc2)c1	1.04 ± 0.046	
O=C(c1cccc(F)c1)N1CCCCN2[C@H](C1)[C@@H](c1ccc(C#CC3(O)CCCC3)cc1)[C@@H]2CO	1.05 ± 0.044	
CO[C@H]1CN(C)C(=O)c2ccc(NS(=O)(=O)CC(F)(F)F)cc2OC[C@H](C)N(C(=O)NC(C)C)C[C@@H]1C	1.02 ± 0.093	
O=C(Nc1ccccc1Cl)N1C[C@@H]2[C@H](c3ccccc31)[C@@H](CO)N2Cc1ccncc1	1.04 ± 0.073	
COc1ccc(C#Cc2ccc([C@H]3[C@@H](CO)N4C(=O)CN(C(=O)c5ccc(F)cc5)C[C@@H]34)cc2)cc1	1.16 ± 0.07	

SMILES	viability index [1]	viability index (library set: Broad Institute Blood Stage)
Cc1nn(C)cc1NC(=O)C[C@H]1CC[C@H]2[C@H](COc3ccc(NC(=O)c4cccc(F)c4)cc3C(=O)N2C)O1	1.13 ± 0.038	
COc1ccc2c3c([nH]c2c1)[C@H](CO)N(C[C@]31CCN(CC1)S(=O)(=O)c1cn(C)cn1)C(=O)Nc1ccc(F)cc1	1.07 ± 0.047	
C[C@@H]1CN([C@@H](C)CO)C(=O)CCCn2cc(nn2)CO[C@H]1CN(C)S(=O)(=O)c1ccc(-n2cccn2)cc1	1.04 ± 0.039	
CCC(=O)N1CC(=O)N2[C@@H](CO)[C@@H](c3ccc(-c4ccc(C#N)cc4)cc3)[C@@H]2C1	0.978 ± 0.069	
COc1ccc(S(=O)(=O)Nc2ccc3c(c2)[C@H]2C[C@@H](CC(=O)N(C)C)O[C@H](CO)[C@H]2O3)cc1	0.996 ± 0.11	
CO[C@@H](CN(C)S(=O)(=O)c1ccc(F)cc1)[C@H](C)CN(Cc1ccccc1Cl)[C@@H](C)CO	1.03 ± 0.04	
C[C@@H](NC(=O)C[C@H]1C[C@@H]2c3cc(NS(=O)(=O)c4ccc(F)cc4)ccc3O[C@@H]2[C@H](CO)O1)c1ccccc1	1.03 ± 0.071	
Cc1noc(C)c1NC(=O)N1C[C@@H](O)COC[C@@H]2O[C@@H](CC(=O)NCC3CC3)CC[C@H]21	1.14 ± 0.07	
CCCNC(=O)Nc1ccc2c(c1)OC[C@@H](C)N(C(=O)C1CCOCC1)C[C@H](C)[C@H](OC)CN(C)C2=O	0.996 ± 0.052	
CCN(C[C@@H]1N[C@@H](CO)[C@H]1c1ccc(-c2ccc(F)cc2)cc1)C(=O)CN(C)C	0.711 ± 0.021	
Cc1ccccc1-c1cnc2c(c1)C(=O)N([C@H](C)CO)C[C@@H](C)[C@H](CN(C)Cc1ccccc1F)O2	1.01 ± 0.08	
CN1C(=O)c2cc(NC(=O)c3ccc(C(F)(F)F)cc3)ccc2OC[C@@H]2O[C@@H](CC(=O)NCc3ccc4c(c3)OCO4)CC[C@@H]21	0.984 ± 0.041	
O=C1CNC[C@H]2[C@H](c3ccc(C#CC4CCCCC4)cc3)[C@H](CO)N12	1.07 ± 0.059	
CO[C@@H](CN(C)Cc1ccc2c(c1)OCO2)[C@@H](C)CN(C(=O)Nc1ccc(F)cc1)[C@H](C)CO	1.07 ± 0.018	
CO[C@@H]1CC[C@H]2CCN(C)C(=O)[C@@H](C)N(C)C(=O)c3cccc(C#N)c3OC[C@@H]1O2	1.05 ± 0.025	
C/C=C/c1ccc([C@H]2[C@@H](CO)N3C(=O)CN(C(=O)NC4CCCCC4)C[C@@H]23)cc1	1.05 ± 0.011	
COc1ccc(S(=O)(=O)Nc2ccc3c(c2)[C@@H]2C[C@@H](CC(=O)N(C)C)O[C@@H](CO)[C@@H]2O3)cc1	1.06 ± 0.081	
COCC(=O)Nc1ccc2c(c1)C(=O)N(C)C[C@@H](OC)[C@@H](C)CN(CCc1ccccc1)[C@H](C)CO2	1.04 ± 0.044	
COc1ccc(NC(=O)N(C)C[C@@H]2OCc3cnnn3CCCC(=O)N([C@@H](C)CO)C[C@H]2C)c(OC)c1	1.074 ± 0.0047	
C[C@@H]1CCCCO[C@H](CN(C)C(=O)Cc2ccccc2)[C@H](C)CN([C@@H](C)CO)C(=O)c2cc(NS(C)(=O)=O)ccc2O1	0.998 ± 0.017	
O=C(C[C@H]1CC[C@H]2NC[C@H](O)COC[C@@H]2O1)NC1Cc2ccccc2C1	1.05 ± 0.049	
COc1ccc2c3c([nH]c2c1)[C@@H](CO)N(C[C@]31CCN(CC2CCCCC2)CC1)S(=O)(=O)c1cn(C)cn1	0.97 ± 0.038	
C[C@H](O)C#Cc1ccc([C@H]2[C@@H](CO)N3CCCCN(C(=O)c4ccc5c(c4)OCO5)C[C@H]23)cc1	1.077 ± 0.0058	
